Assay [1] concerns the target T1, ARCN1-Myc (archain 1, δ subunit of coat protein complex I) (human) (UniProt P48444).
T1 sequence: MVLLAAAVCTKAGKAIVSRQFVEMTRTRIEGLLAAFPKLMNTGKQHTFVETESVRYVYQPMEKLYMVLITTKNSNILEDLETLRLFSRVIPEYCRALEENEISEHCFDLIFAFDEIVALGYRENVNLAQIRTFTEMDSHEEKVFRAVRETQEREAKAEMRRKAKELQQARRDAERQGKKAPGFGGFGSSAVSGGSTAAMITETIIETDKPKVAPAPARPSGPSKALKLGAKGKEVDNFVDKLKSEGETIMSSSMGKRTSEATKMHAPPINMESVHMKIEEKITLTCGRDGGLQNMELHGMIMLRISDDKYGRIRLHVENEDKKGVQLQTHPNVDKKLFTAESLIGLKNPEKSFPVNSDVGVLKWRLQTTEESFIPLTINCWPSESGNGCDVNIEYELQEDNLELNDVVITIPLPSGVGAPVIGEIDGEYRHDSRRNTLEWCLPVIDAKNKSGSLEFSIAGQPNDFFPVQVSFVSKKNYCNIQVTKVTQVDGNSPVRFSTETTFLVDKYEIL
Kind of assay: co-IP; HEK293T cells co-transfected with tagged plasmids; NP-40 lysates incubated overnight at 4°C with magnetic beads carrying anti-Flag, anti-Myc or anti-HA antibodies; Fig 4b precipitated with anti-Myc; cells of Fig 9c-d treated with MG132 (10 μM) for 12 h.

The chains behind the UniProt entries cited, without tags or fusion partners.
UniProt Q7Z434: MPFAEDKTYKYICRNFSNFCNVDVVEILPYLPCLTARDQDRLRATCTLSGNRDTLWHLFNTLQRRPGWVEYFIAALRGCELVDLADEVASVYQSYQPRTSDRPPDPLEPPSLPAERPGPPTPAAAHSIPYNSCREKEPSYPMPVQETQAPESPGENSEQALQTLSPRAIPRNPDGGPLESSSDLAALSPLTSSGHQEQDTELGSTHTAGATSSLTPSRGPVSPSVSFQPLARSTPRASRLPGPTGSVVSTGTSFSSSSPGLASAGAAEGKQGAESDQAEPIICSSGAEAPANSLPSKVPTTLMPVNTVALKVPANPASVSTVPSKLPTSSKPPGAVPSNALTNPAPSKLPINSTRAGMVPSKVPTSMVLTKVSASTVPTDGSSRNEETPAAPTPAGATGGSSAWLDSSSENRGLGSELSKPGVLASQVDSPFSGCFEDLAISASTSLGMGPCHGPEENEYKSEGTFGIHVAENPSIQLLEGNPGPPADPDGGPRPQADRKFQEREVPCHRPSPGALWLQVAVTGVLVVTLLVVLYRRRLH
UniProt Q9UNE7: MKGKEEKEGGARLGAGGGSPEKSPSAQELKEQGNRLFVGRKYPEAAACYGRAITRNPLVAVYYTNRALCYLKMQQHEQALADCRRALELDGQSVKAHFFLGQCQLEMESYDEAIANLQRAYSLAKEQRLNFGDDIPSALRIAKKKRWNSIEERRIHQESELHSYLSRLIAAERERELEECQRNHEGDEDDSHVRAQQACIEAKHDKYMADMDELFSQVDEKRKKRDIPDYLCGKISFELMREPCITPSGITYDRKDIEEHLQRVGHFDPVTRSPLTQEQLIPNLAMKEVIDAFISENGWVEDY

In assay [2] the target is T2, endogenous ARCN1 of HEK293T cells (human (endogenous in HEK293T)) (UniProt P48444).
T2 sequence: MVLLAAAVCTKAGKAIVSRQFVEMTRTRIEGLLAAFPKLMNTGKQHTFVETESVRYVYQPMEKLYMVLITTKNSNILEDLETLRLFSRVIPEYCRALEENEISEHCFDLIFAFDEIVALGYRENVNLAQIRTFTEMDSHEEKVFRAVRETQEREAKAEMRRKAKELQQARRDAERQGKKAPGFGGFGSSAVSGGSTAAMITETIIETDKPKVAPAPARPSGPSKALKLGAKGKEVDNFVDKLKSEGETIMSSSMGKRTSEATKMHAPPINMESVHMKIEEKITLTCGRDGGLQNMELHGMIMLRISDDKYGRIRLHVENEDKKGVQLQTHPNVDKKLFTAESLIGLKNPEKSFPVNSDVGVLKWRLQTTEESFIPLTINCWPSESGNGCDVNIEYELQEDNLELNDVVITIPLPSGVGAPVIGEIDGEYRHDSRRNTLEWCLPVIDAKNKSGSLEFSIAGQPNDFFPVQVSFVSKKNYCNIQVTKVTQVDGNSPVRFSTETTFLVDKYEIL
In words: co-IP; HEK293T cells transfected with STUB1-WT-HA or STUB1-mutant-HA for 36 h, MG132 (10 μM) for 12 h; endogenous ARCN1 precipitated with an anti-ARCN1 antibody.

In assay [3] the target is T3, ARCN1-MHD-Myc (ARCN1 MHD domain, 271-511 aa) (human) (UniProt P48444).
T3 sequence: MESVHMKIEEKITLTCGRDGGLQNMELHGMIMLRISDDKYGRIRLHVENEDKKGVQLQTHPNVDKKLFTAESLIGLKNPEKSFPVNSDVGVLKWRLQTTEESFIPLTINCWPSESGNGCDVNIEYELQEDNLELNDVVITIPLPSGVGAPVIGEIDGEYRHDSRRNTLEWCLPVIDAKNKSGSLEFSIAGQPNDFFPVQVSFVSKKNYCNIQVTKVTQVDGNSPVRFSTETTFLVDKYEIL
Kind of assay: co-IP; HEK293T cells co-transfected with tagged plasmids; NP-40 lysates incubated overnight at 4°C with magnetic beads carrying anti-Flag, anti-Myc or anti-HA antibodies; Fig 4b precipitated with anti-Myc; cells of Fig 9c-d treated with MG132 (10 μM) for 12 h.

Assay [4] addresses T1, ARCN1-Myc (archain 1, δ subunit of coat protein complex I) (human). The assay is described as above. This is another data set of the same source.
In assay [5] the target is T3, ARCN1-MHD-Myc (ARCN1 MHD domain, 271-511 aa) (human). Described as above. This is another data set of the same source.

Like-named read-outs stand apart in the source and are kept apart here. Results are given in words; binding and its absence hold for the method and conditions named. Binding seen in cells or lysates may run through a third protein. Some results given as binding are weak or reduced against the parent protein; the word gives no strength. For some assays here: Sequences can lack the tags named with a protein.

MAVS-Flag (from UniProt Q7Z434 1-540): the binding result in assay [1] was “no binding”.
Regarding STUB1-HA (from UniProt Q9UNE7 1-303), the binding entry in assay [2], in assay [3] and in assay [1] was “binds” each time.

B1: TBK1-Flag (protein, UniProt Q9UHD2 1-729)
chain: MQSTSNHLWLLSDILGQGATANVFRGRHKKTGDLFAIKVFNNISFLRPVDVQMREFEVLKKLNHKNIVKLFAIEEETTTRHKVLIMEFCPCGSLYTVLEEPSNAYGLPESEFLIVLRDVVGGMNHLRENGIVHRDIKPGNIMRVIGEDGQSVYKLTDFGAARELEDDEQFVSLYGTEEYLHPDMYERAVLRKDHQKKYGATVDLWSIGVTFYHAATGSLPFRPFEGPRRNKEVMYKIITGKPSGAISGVQKAENGPIDWSGDMPVSCSLSRGLQVLLTPVLANILEADQEKCWGFDQFFAETSDILHRMVIHVFSLQQMTAHKIYIHSYNTATIFHELVYKQTKIISSNQELIYEGRRLVLEPGRLAQHFPKTTEENPIFVVSREPLNTIGLIYEKISLPKVHPRYDLDGDASMAKAITGVVCYACRIASTLLLYQELMRKGIRWLIELIKDDYNETVHKKTEVVITLDFCIRNIEKTVKVYEKLMKINLEAAELGEISDIHTKLLRLSSSQGTIETSLQDIDSRLSPGGSLADAWAHQEGTHPKDRNVEKLQVLLNCMTEIYYQFKKDKAERRLAYNEEQIHKFDKQKLYYHATKAMTHFTDECVKKYEAFLNKSEEWIRKMLHLRKQLLSLTNQCFDIEEEVSKYQEYTNELQETLPQKMFTASSGIKHTMTPIYPSSNTLVEMTLGMKKLKEEMEGVVKELAENNHILERFGSLTMDGGLRNVDCL
B1: the binding entry in assay [4] is recorded as “no binding”.

B2: IKKε-Flag (protein, UniProt Q14164 1-716)
chain: MQSTANYLWHTDDLLGQGATASVYKARNKKSGELVAVKVFNTTSYLRPREVQVREFEVLRKLNHQNIVKLFAVEETGGSRQKVLVMEYCSSGSLLSVLESPENAFGLPEDEFLVVLRCVVAGMNHLRENGIVHRDIKPGNIMRLVGEEGQSIYKLTDFGAARELDDDEKFVSVYGTEEYLHPDMYERAVLRKPQQKAFGVTVDLWSIGVTLYHAATGSLPFIPFGGPRRNKEIMYRITTEKPAGAIAGAQRRENGPLEWSYTLPITCQLSLGLQSQLVPILANILEVEQAKCWGFDQFFAETSDILQRVVVHVFSLSQAVLHHIYIHAHNTIAIFQEAVHKQTSVAPRHQEYLFEGHLCVLEPSVSAQHIAHTTASSPLTLFSTAIPKGLAFRDPALDVPKFVPKVDLQADYNTAKGVLGAGYQALRLARALLDGQELMFRGLHWVMEVLQATCRRTLEVARTSLLYLSSSLGTERFSSVAGTPEIQELKAAAELRSRLRTLAEVLSRCSQNITETQESLSSLNRELVKSRDQVHEDRSIQQIQCCLDKMNFIYKQFKKSRMRPGLGYNEEQIHKLDKVNFSHLAKRLLQVFQEECVQKYQASLVTHGKRMRVVHETRNHLRLVGCSVAACNTEAQGVQESLSKLLEELSHQLLQDRAKGAQASPPPIAPYPSPTRKDLLLHMQELCEGMKLLASDLLDNNRIIERLNRVPAPPDV
B2: the binding entry in assay [5] and in assay [4] was “binds” in each case.

B3: endogenous IKKε of HEK293T cells (protein, UniProt Q14164 1-716)
chain: MQSTANYLWHTDDLLGQGATASVYKARNKKSGELVAVKVFNTTSYLRPREVQVREFEVLRKLNHQNIVKLFAVEETGGSRQKVLVMEYCSSGSLLSVLESPENAFGLPEDEFLVVLRCVVAGMNHLRENGIVHRDIKPGNIMRLVGEEGQSIYKLTDFGAARELDDDEKFVSVYGTEEYLHPDMYERAVLRKPQQKAFGVTVDLWSIGVTLYHAATGSLPFIPFGGPRRNKEIMYRITTEKPAGAIAGAQRRENGPLEWSYTLPITCQLSLGLQSQLVPILANILEVEQAKCWGFDQFFAETSDILQRVVVHVFSLSQAVLHHIYIHAHNTIAIFQEAVHKQTSVAPRHQEYLFEGHLCVLEPSVSAQHIAHTTASSPLTLFSTAIPKGLAFRDPALDVPKFVPKVDLQADYNTAKGVLGAGYQALRLARALLDGQELMFRGLHWVMEVLQATCRRTLEVARTSLLYLSSSLGTERFSSVAGTPEIQELKAAAELRSRLRTLAEVLSRCSQNITETQESLSSLNRELVKSRDQVHEDRSIQQIQCCLDKMNFIYKQFKKSRMRPGLGYNEEQIHKLDKVNFSHLAKRLLQVFQEECVQKYQASLVTHGKRMRVVHETRNHLRLVGCSVAACNTEAQGVQESLSKLLEELSHQLLQDRAKGAQASPPPIAPYPSPTRKDLLLHMQELCEGMKLLASDLLDNNRIIERLNRVPAPPDV
As to B3, the binding entry in assay [2] is reported as “binds”.

B4: RIG-I-Flag (protein, UniProt O95786 1-925)
chain: MTTEQRRSLQAFQDYIRKTLDPTYILSYMAPWFREEEVQYIQAEKNNKGPMEAATLFLKFLLELQEEGWFRGFLDALDHAGYSGLYEAIESWDFKKIEKLEEYRLLLKRLQPEFKTRIIPTDIISDLSECLINQECEEILQICSTKGMMAGAEKLVECLLRSDKENWPKTLKLALEKERNKFSELWIVEKGIKDVETEDLEDKMETSDIQIFYQEDPECQNLSENSCPPSEVSDTNLYSPFKPRNYQLELALPAMKGKNTIICAPTGCGKTFVSLLICEHHLKKFPQGQKGKVVFFANQIPVYEQQKSVFSKYFERHGYRVTGISGATAENVPVEQIVENNDIIILTPQILVNNLKKGTIPSLSIFTLMIFDECHNTSKQHPYNMIMFNYLDQKLGGSSGPLPQVIGLTASVGVGDAKNTDEALDYICKLCASLDASVIATVKHNLEELEQVVYKPQKFFRKVESRISDKFKYIIAQLMRDTESLAKRICKDLENLSQIQNREFGTQKYEQWIVTVQKACMVFQMPDKDEESRICKALFLYTSHLRKYNDALIISEHARMKDALDYLKDFFSNVRAAGFDEIEQDLTQRFEEKLQELESVSRDPSNENPKLEDLCFILQEEYHLNPETITILFVKTRALVDALKNWIEGNPKLSFLKPGILTGRGKTNQNTGMTLPAQKCILDAFKASGDHNILIATSVADEGIDIAQCNLVILYEYVGNVIKMIQTRGRGRARGSKCFLLTSNAGVIEKEQINMYKEKMMNDSILRLQTWDEAVFREKILHIQTHEKFIRDSQEKPKPVPDKENKKLLCRKCKALACYTADVRVIEECHYTVLGDAFKECFVSRPHPKPKQFSSFEKRAKIFCARQNCSHDWGIHVKYKTFEIPVIKIESFVVEDIATGVQTLYSKWKDFHFEKIPFDPAEMSK
In the case of B4, the binding result in assay [4] was “no binding”.

B5: IKKε-N-Flag (IKKε N-terminal kinase domain, 1-390 aa) (domain or fragment, UniProt Q14164 1-390)
chain: MQSTANYLWHTDDLLGQGATASVYKARNKKSGELVAVKVFNTTSYLRPREVQVREFEVLRKLNHQNIVKLFAVEETGGSRQKVLVMEYCSSGSLLSVLESPENAFGLPEDEFLVVLRCVVAGMNHLRENGIVHRDIKPGNIMRLVGEEGQSIYKLTDFGAARELDDDEKFVSVYGTEEYLHPDMYERAVLRKPQQKAFGVTVDLWSIGVTLYHAATGSLPFIPFGGPRRNKEIMYRITTEKPAGAIAGAQRRENGPLEWSYTLPITCQLSLGLQSQLVPILANILEVEQAKCWGFDQFFAETSDILQRVVVHVFSLSQAVLHHIYIHAHNTIAIFQEAVHKQTSVAPRHQEYLFEGHLCVLEPSVSAQHIAHTTASSPLTLFSTAIPKGL
As for B5, the binding result in assay [4] was “binds”.

B6: IRF3-Flag (protein, UniProt Q14653 1-427)
chain: MGTPKPRILPWLVSQLDLGQLEGVAWVNKSRTRFRIPWKHGLRQDAQQEDFGIFQAWAEATGAYVPGRDKPDLPTWKRNFRSALNRKEGLRLAEDRSKDPHDPHKIYEFVNSGVGDFSQPDTSPDTNGGGSTSDTQEDILDELLGNMVLAPLPDPGPPSLAVAPEPCPQPLRSPSLDNPTPFPNLGPSENPLKRLLVPGEEWEFEVTAFYRGRQVFQQTISCPEGLRLVGSEVGDRTLPGWPVTLPDPGMSLTDRGVMSYVRHVLSCLGGGLALWRAGQWLWAQRLGHCHTYWAVSEELLPNSGHGPDGEVPKDKEGGVFDLGPFIVDLITFTEGSGRSPRYALWFCVGESWPQDQPWTKRLVMVKVVPTCLRALVEMARVGGASSLENTVDLHISNSHPLSLTSDQYKAYLQDLVEGMDFQGPGES
For B6, the binding entry in assay [4] is reported as “no binding”.

For the origin of these results see PMC12677500.
